Source: PubChem BioAssay AID1671193 (National Center for Advancing Translational Sciences (NCATS), 2021)
Screen size: about 150,000 compounds; about 180 (0.12%) were called active. Inconclusive means that the source gave no clear call. Such entries were picked first, then a sample of the others. Calls come from the whole dose curve; as a rule, active = well fitted cell-killing curve with a large enough effect; inconclusive = small, poorly fitted or top-dose-only effect, or effect the other way; inactive = flat fitted curve, though single readings scatter. A potency beside an inconclusive call is a rough fit, not a confirmed value.

experiment: GF-AFC viability counterscreen for inhibitors of alpha-synuclein gene (SNCA) expression; details: HEK-293-SNCA-luc viability, GF-AFC fluorescence, 24 h; activity change, negative = cytotoxicity: at 57.1 µM (top of the series) unless noted; note: nearly all actives have a fitted effect of over 30% in size;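 for activity change, negative = cytotoxicity: 0% = DMSO-treated cells and -100% = medium-only wells without cells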
Method in brief: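 HEK-293-SNCA-luc cells (1500/well) plated 24 h, then exposed 24 h to a dilution series; GF-AFC added 30 min at 37C, fluorescence 405/540 nm; normalised to medium-only and DMSO wells, Hill fit.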
Potency is the fitted concentration of half-maximal effect; tags give direction and shape of the fitted curve.

SMILES	Potency	activity change, negative = cytotoxicity
COc1cccc([S+](=O)([O-])NC[C@@H]2CC[C@H]3C[C@@H]2C3(C)C)c1	inconclusive: 7.08 µM [cytotoxic, full curve, poor fit]	
Cn1cccc1CN1CCC2(C1)C(=NC1CCCCC1)NC(=O)N2c1cccnc1 (centres undefined)	inconclusive: 5.62 µM [cytotoxic, single point]	
CN1CCN(CCCNC(=O)CCC[C@@H]2[C@H]3CCCN4CCC[C@@H](CN2Cc2ccccc2)[C@@H]34)CC1	inactive	
COc1cccc(F)c1-c1ccc(COc2ccc3c(cnn3CCC(=O)O)c2)cc1	inactive	
CCCNC(=O)CCc1ccc2c(c1)CN(C(=O)NCC)CCO2		inactive: 4.94% [at 12.5 µM]
Nc1cc(C(=O)N2CCc3onc(-c4ccc(-c5ccccc5)cc4)c3C2)[nH]n1	inconclusive: 17.8 µM [cytotoxic, partial curve, poor fit]	
CCOCCCNC(=O)N1CCC(OC2CCN(Cc3ccccc3)CC2)CC1	inconclusive: 8.91 µM [rising, partial curve, poor fit]	
CC(=O)c1cccc(NC(=O)c2cccn2-c2nnc(N3CCCCC3)s2)c1	inconclusive: 28.2 µM [cytotoxic, single point]	
CC(=O)Nc1cc(-c2cn(C)c(=O)n3cc(COc4ccc(Cl)cc4)nc23)ccn1	inactive	
COc1ccc(NC(=O)CN2C(=O)COc3ccc(S(=O)(=O)Nc4ccccc4)cc32)cc1OC	inconclusive: 22.4 µM [cytotoxic, single point]	
CCC1(N2CCN(C(=O)c3ccc(Cl)cc3OC)CC2)CCN(C(=O)NC)C1 (centres undefined)	inconclusive: 28.2 µM [cytotoxic, single point]	
O=C(C[C@@H]1CCNC[C@@H]1Cc1cc(-c2ccc(F)cc2)on1)NCc1ccc(F)cc1	inactive	
Cc1ccc2c(c1)sc1nc(-c3cc4ccccc4oc3=O)cn12	inactive	
CC[C@H]1CN2CCc3cc(OC)c(OC)cc3[C@H]2C[C@@H]1C[C@@H]1NCCc2cc(OC)c(OC)cc21	inconclusive: 0.304 µM [cytotoxic, full curve]	
COCCN(C)C[C@@H]1CN(C(=O)Cn2ncc3ccccc3c2=O)C[C@@H]1CO	inactive	
Cn1ccc2c(C(=O)NCc3cnccn3)nc(-c3cccc(N4CCOCC4)c3)cc21	inactive	
O=C(c1cnccn1)N1CCC(c2nc(C3CC3)no2)C1 (centres undefined)	inactive	
C=C1C(=O)O[C@@H]2/C=C(\C)C(=O)/C=C/[C@](C)(O)C[C@@H](OC(=O)C(C)C)[C@@H]12	active: 9.27 µM	
Cc1ccc(Cn2ccn(CC(=O)Nc3ccccc3C(F)(F)F)c(=O)c2=O)cc1	inconclusive: 7.08 µM [cytotoxic, single point]	
CCCC(=O)Nc1ccccc1-c1cccc(NC(C)=O)c1	inactive	
O=C(c1cnc2cc(-c3ccccc3)nn2c1)c1cc([N+](=O)[O-])ccc1O	inconclusive: 20 µM [cytotoxic, partial curve, poor fit]	
COc1cccc(/C=C/c2nc(C#N)c(N3CCCCC3)o2)c1	inconclusive: 22.4 µM [rising, partial curve, poor fit]	

SMILES	Potency	activity change, negative = cytotoxicity
CCCn1c(=N)c(C(=O)NCc2cccnc2)cc2c(=O)n3cc(C)ccc3nc21	inconclusive: 25.1 µM [rising, partial curve, poor fit]	
O=C(NCCCc1ccccc1)c1n[nH]c2c1CN(C(=O)c1ccccc1Cl)CC2	inactive	
CC(C)NC(=O)c1ccccc1OCC1CCCN(Cc2cn(C)c3ccccc23)C1 (centres undefined)	inconclusive: 12.6 µM [cytotoxic, partial curve, poor fit]	
Cc1cc(C)c2c(=O)c3c(oc2c1)C(=O)N(Cc1ccc(F)cc1)C3c1cccc(O)c1 (centres undefined)	inconclusive: 35.5 µM [cytotoxic, single point]	
Cc1cc(C(=O)N[C@H]2[C@H](O)[C@H](O)C[C@@H]2c2ccc(N3CCOCC3)nc2)n(C)n1	inactive	
O=C(NCCOc1ccccc1)c1cnc2c(c1)N(C(=O)Cc1ccc(O)cc1)CCC2	inactive	
O=C(Nc1ccc(OC(F)(F)F)cc1)c1cc(-c2ccc[nH]2)n[nH]1	inactive	
Cc1ccc(-c2cc(C(=O)N3CCC(c4ncccn4)CC3)c3cnn(C)c3n2)c(C)c1	inactive	
Cc1ccc(-c2cc(C(=O)NCc3cnn(C)c3)c3cc(Br)ccc3n2)cc1	inactive	
CCOc1cc(C2c3c(oc4ccc(F)cc4c3=O)C(=O)N2Cc2ccco2)ccc1O (centres undefined)	inconclusive: 14.1 µM [rising, partial curve, poor fit]	
CN(C)c1ccc2nc3ccc(=[N+](C)C)cc-3sc2c1	inconclusive: 19.2 µM [cytotoxic, partial curve]	
Cc1nc(-c2c3n(c(=O)n(CC(=O)Nc4ccccc4Cl)c2=O)CCCC3)no1	inactive	
CCC1Oc2ccc(NC(=O)c3ccc(OC)c(OC)c3)cc2CN(Cc2ccc(Cl)cc2)C1=O (centres undefined)	inconclusive: 11.2 µM [cytotoxic, partial curve, poor fit]	
COC1CCCN(C(=O)c2cc(COc3c(F)cccc3F)on2)C1 (centres undefined)	inactive	
O=C(Nc1cccc(-c2nnc3n2CCCC3)c1)c1ccc[nH]c1=O	inactive	
COc1cccc(C(=O)Nc2ccc(-c3nc4ccccc4s3)cc2Cl)c1	inactive	
COc1ccc(NC(=O)Cn2c(=O)n(-c3cccc(C)c3)c(=O)c3c2cc(C)n3C)c(OC)c1	inconclusive: 0.708 µM [cytotoxic, full curve, poor fit]	
Cc1cc(C(F)(F)F)nc(CCNC(=O)C2NCCc3[nH]cnc32)n1 (centres undefined)	inactive	
Cc1ccc(S(=O)(=O)c2nc(-c3ccccc3Cl)oc2N2CCCCCC2)cc1	inactive	
Cc1noc(C)c1-c1cc2c(c(-c3ccc(F)c(Cl)c3)c1)C(=O)N(C)C2	inconclusive: 44.7 µM [cytotoxic, partial curve, poor fit]	
Cn1nc(C(=O)N2CCCCCCNC(=O)[C@@H]3CCCC[C@@H]32)c2ccccc21	inconclusive: 3.55 µM [cytotoxic, single point]	
COC(=O)[C@@H]1Cc2c([nH]c3ccccc23)[C@H]2C[C@@H](NC(C)C)C[C@@H](c3ccccc3)N21	inconclusive: 31.6 µM [cytotoxic, partial curve, poor fit]	
